Several values for one entry are separate records, joined by “and”; a condition that tells them apart may be missing. Identical values can stand only once.
B1: wild type (WT) PRMT1 (His6-TEV-WT PRMT1, humanized) (enzyme)
chain: not shown

Legend:
native gel or EMSA = target: the molecule itself; assay: native gel or EMSA
[1] = target: the molecule itself; assay: other fluorescence titration
[2] = target: B1; assay: cross-linking

| binding result [2] | Binder | stoichiometry N (native gel or EMSA) | EC50 [1] |
| --- | --- | --- | --- |
|  | B1 | 4 and 2 | 17.9 ± 5 nM |
| binds | H421 peptide (Acetyl-…, biotin conjugated to C-terminal lysine) (N-terminal acetyl; biotin conjugated to C-terminal lysine) peptide: not shown |  |  |
|  | H293A PRMT1 (enzyme) not shown | 4 |  |

Source: article PMC11255602 (Protein Science : A Publication of the Protein Society, 2024)
